From PubChem BioAssay AID1645882 (National Center for Advancing Translational Sciences (NCATS), 2021)
The whole screen tested about 16,000 compounds, of which about 120 (0.75%) were called active. About 4% were inconclusive and are not listed. Calls come from the whole dose curve; as a rule, active = well fitted inhibition curve with a large enough effect; inconclusive = small, poorly fitted or top-dose-only effect; inactive = no such curve, though single readings can be large or run the other way. Some of the results follow.

biological target: Rap guanine nucleotide exchange factor 3 (Homo sapiens) (UniProt O95398); assay: Validation qHTS for antagonist of cAMP-regulated guanine nucleotide exchange factor 3 (EPAC1); details: EPAC1 Rap1B-BODIPY-GDP exchange, fluorescence; series mostly up to 150 µM; activity change, negative = inhibition: at the top concentration; note: nearly all actives have a fitted effect of over 75% in size;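 for activity change, negative = inhibition: plate controls were DMSO for no effect and ATA control for full effect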
In short: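 Nucleotide exchange followed as fluorescence loss when BODIPY-GDP leaves Rap1B (480 nm excitation, 540 nm emission), read at 5 min intervals over 30 min. Reaction: 100 nM EPAC1, 250 nM RAP1B-BODIPY-GDP, 50 uM GDP; ATA and DMSO define normalization.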
Potency is the fitted concentration of half-maximal effect.

UniProt O95398, sequence (O95398 whole entry, looked up): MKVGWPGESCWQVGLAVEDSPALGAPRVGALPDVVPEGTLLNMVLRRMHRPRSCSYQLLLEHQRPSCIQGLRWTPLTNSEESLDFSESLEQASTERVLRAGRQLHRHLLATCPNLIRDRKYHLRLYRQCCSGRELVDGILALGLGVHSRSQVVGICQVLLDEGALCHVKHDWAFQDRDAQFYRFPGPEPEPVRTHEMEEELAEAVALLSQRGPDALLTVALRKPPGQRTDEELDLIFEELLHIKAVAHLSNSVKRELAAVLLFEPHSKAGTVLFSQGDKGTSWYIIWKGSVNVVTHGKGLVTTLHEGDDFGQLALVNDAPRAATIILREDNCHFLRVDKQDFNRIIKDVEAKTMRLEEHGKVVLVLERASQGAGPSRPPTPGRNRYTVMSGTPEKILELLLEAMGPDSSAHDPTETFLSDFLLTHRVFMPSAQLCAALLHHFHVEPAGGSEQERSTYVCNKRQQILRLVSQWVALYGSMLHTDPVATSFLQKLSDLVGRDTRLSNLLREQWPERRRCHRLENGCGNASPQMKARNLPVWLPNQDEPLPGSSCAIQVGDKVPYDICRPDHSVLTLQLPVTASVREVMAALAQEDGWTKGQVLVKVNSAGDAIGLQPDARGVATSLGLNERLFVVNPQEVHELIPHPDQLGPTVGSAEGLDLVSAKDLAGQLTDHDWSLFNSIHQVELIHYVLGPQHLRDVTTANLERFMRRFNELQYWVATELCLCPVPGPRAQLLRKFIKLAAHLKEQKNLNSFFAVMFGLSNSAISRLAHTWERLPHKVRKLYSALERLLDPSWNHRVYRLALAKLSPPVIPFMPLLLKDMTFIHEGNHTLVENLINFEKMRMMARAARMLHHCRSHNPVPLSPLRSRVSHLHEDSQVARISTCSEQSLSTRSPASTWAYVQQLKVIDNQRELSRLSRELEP

Activity change, negative = inhibition, inactive:
CCC(CO)NCCNC(CC)CO (stereo unspecified) 9.29%, CCCC1CC(C(=O)N[C@H](C(C)O)C2OC(SC)[C@@H](O)C(O)C2O)N(C)C1 (stereo partly specified) 11.2%, OCCN(CCO)c1ccc(/C=C/c2ccnc3ccccc23)cc1 -21.7%, CCCCCCCC/C=C\CCCCCCCCOC[C@H](COP(=O)([O-])OCC[N+](C)(C)C)OC(C)=O 22% [at 15.3 µM], CC1(C)CCC(=O)N2CC[C@H]3C[C@H](OC(=O)Nc4ccc(Br)cc4)C[C@@H]1[C@H]32 -15.1%, O=C(c1csnn1)N1CCC2(CC1)CN(C(c1ccccc1)c1ccccc1)C2 6.03%, c1cnc(N2CCN(Cc3ccc4c(c3)OCO4)CC2)nc1, COc1ccc(/C=C/C(=O)c2cccs2)c(OC)c1 -20%, c1nc(NC2CC2)c2cc(-c3ccoc3)ccc2n1 -0.61%, c1ccc(CNc2ncnc3ccc(-c4cccnc4)cc23)cc1 14.7%, C/C(=C\CNc1ncnc2nc[nH]c12)CO -5.76%, C[C@](N)(Cc1ccc(O)c(O)c1)C(=O)O, CN(C)C(=O)c1ccc(-c2cncnc2NCc2cccs2)cc1 22.5%, N[C@H]1CN(c2c(F)cc3c(=O)c(C(=O)O)cn(C4C[C@@H]4F)c3c2Cl)CC12CC2 (stereo partly specified) 16.6%, CCNc1ncc2nc(-c3ccc(Cl)cc3)c(=O)n(-c3ccc(OC)cc3)c2n1 33.6%, Clc1ccc(C(Cn2ccnc2)OCc2ccsc2Cl)c(Cl)c1 (stereo unspecified) -10.6%, COc1cc(=O)n2c(c1C(=O)N(C)Cc1nonc1C)CCN(Cc1cccc3ccccc13)CC2 5.59%, C[N+]1(CC(=O)c2ccc(I)cc2)CCOCC1 -0.512%, CCCC1C(=O)N2C(N(C)C)=Nc3ccc(C)cc3N2C1=O (stereo unspecified) 10.4% [at 75.8 µM], C=CC(C1=CC(=O)C(OC)=CC1=O)c1ccccc1 (stereo unspecified) -19.4%, COc1cc2c(cc1OC)CC(=O)N(CCCN(C)C[C@H]1Cc3cc(OC)c(OC)cc31)CC2 2.07%, O=C(c1cnccn1)N1CCC2(CCN(Cc3ccccc3)CC2)CC1 19.8%, NCC1OC(n2cnc3c(=O)[nH]c(N)nc32)C(O)C1O (stereo unspecified) 2.05%, CCCCCCC[n+]1ccc(/C=C/c2c[nH]c3ccccc23)cc1 45.2%, CC[N+](CC)(CC)CCOc1ccc(/C=C\c2ccccc2)cc1 4.5%, O=c1c(-c2ccccc2)nc2cnc(N3CCOCC3)nc2n1C[C@H]1CCCO1 9.32%, CCCCCCCCCCCCOCCOCCOCCOCCOCCOCCOCCOCCOCCO -16.2%, COCCCNc1ncnc2sc(C(=O)N3CCOCC3)c(C)c12 13.1%, COC(=O)c1cc(=O)c(O)c2c(O)c(O)ccc2c1 -12.7%, COC(=O)C1CCCCN1Cc1nc(N2CCCN(C(C)=O)CC2)c2ccccc2n1 (stereo unspecified) 5.63%, COc1cccc(-c2nc(Nc3ccncc3)c3ccccc3n2)c1 15.7%, COC(=O)/C=C/c1ccc(C(=O)NCC(=O)N[C@@H](CCC(=O)OC)C(=O)N[C@@H](CC(C)C)C(N)=O)cc1 12.4%, O=C(Nc1ccccc1)N1CC2(CCN(C(=O)c3cccc(F)c3)CC2)C1 9.19%, O=c1c(-c2ccc(F)cc2)nc2cnc(Oc3ccccc3)nc2n1C1CC1 2.74%, OC1(c2cccnc2)CCN(Cc2ccc3c(c2)CN(Cc2cc(F)ccc2F)CCO3)CC1 16.6%, NS(=O)(=O)c1ccc(Cl)c(S(N)(=O)=O)c1 12.7%, CN(C)Cc1ccccc1-c1cncnc1NCc1cccs1 17.8%, CCC1COCCS(=O)(=O)N1Cc1ccccc1C (stereo unspecified) 12.5%, COc1cc(C)c2ccccc2n1 25.2%, Cc1cc2c(c(-c3cnccn3)c1)OC(CNC(=O)C1CCCN(C)C1)C2 (stereo unspecified) 18.7%, CCc1ncnc2cc(OC)c(OC)cc12 1.45%, COc1ccc(CNc2ccnc(-c3ccccc3OC)n2)c(OC)c1 -10.6%, Clc1ccc2nccnc2c1 19.4%, COc1ccccc1C(=O)N1CCOc2ccc(C(C)(O)CCn3cccn3)cc2C1 (stereo unspecified) -13.4%, CC(=O)N1CCN(c2ccc(OCC3CO[C@@](Cn4ccnc4)(c4ccc(Cl)cc4Cl)O3)cc2)CC1 (stereo partly specified) -2.44%, Cc1cccc(CNc2ncnc3ccc(-c4ccoc4)cc23)c1 -4.28%, Cc1c(C(=O)NN2CCCCC2)nn(-c2ccc(Cl)cc2Cl)c1-c1ccc(Cl)cc1 12.6%, Cn1cccc1C(=O)N1CCC2(CCCN(c3ccccc3)C2)CC1 3.97%, O=C1C=C(O)c2ccccc2C1=O, CC1=C2C(=CO[C@H](C)[C@H]2C)C(=O)C(C(=O)O)=C1O 15.4%, CC(C)NS(=O)(=O)c1cc(C(F)(F)F)ccc1/C=C/C(=O)O 8.02%, CC(=O)C[C@H]1c2ccccc2S(=O)(=O)N1C1CCCC1 21.8%, COCCNc1ncnc2ccc(-c3ccc(C(=O)N(C)C)cc3)cc12 14.5%, O=C(NC1CC1)[C@@H]1C[C@@H](Sc2nc3ccccc3[nH]2)CN1CC1CCCCC1 -10.3%, CCNc1ncc2nc(-c3ccc(OC)cc3)c(=O)n(Cc3cccs3)c2n1 0.856%, CC(C)NCC(O)COc1ccc(CCOCC2CC2)cc1 (stereo unspecified), CC(=O)[C@@]1(O)CC[C@H]2[C@@H]3C[C@H](C)C4=CC(=O)C=C[C@]4(C)[C@@]3(F)[C@@H](O)C[C@@]21C 15.5% [at 75.8 µM], CC(=O)Nc1ccc(OC(=O)c2ccccc2OC(C)=O)cc1 9.18%, c1ccc2sc(SN3CCOCC3)nc2c1 -6.18%, COc1cccc(-c2cc3c(c(OC)c2)OCCN(Cc2cccn2-c2ccccn2)C3)c1 2.77%, CCc1nc(N)nc(N)c1-c1ccc(Cl)cc1, N#Cc1cccc(-c2cc(-n3ccnc3)ncn2)c1 23.1%, COC(=O)CCCOc1ccc(Cl)cc1Cl 8.01%, Cc1ncc2c(c1CNC(=O)c1ccc3c(c1)OCO3)CCN(C(=O)c1cc3ccccc3n1C)C2 6.07%, O=C(c1cccc(F)c1)N1CCC2(CCCN(c3ccccc3)C2)CC1 1.21%, FC(F)(F)c1ccccc1-c1cncnc1NCCN1CCOCC1 9.57%, COc1ccc(OC)c(CN2C[C@H](Sc3ccc(F)cc3)C[C@H]2C(=O)N(C)C)c1 10.3%, CC(=O)NC(=O)c1ccccc1O 4.91%, COc1c2c(cc3c1C(c1c(O)c4ccccc4oc1=O)N(C)CC3)OCO2 (stereo unspecified) -11.8%, C1CCC(C(CC2CCCCN2)C2CCCCC2)CC1 (stereo unspecified) 18%, COCCn1c(=O)c(-c2ccc(OC)cc2)nc2cnc(N3CCNCC3)nc21 12.2%, CC(C)N(c1ccc(C=O)cc1)C(C)C 5.8%, C[C@@H]1CN(Cc2ccc3c(c2)CN(Cc2cn[nH]c2-c2ccccc2)CCO3)C[C@H](C)O1 6.18%, O=c1cc(CO)occ1O, CS(=O)(=O)Nc1cccc(-c2cncnc2Nc2ccccc2)c1 1.21%, COc1cccc(CN2CCC(n3cc(C(=O)NC4CCCC4)nn3)CC2)c1O 22%, COc1ccccc1CNc1nc(-c2ccc3c(c2)OCO3)nc2ccccc12 -9.28%, CCNc1ncc2ncc(=O)n(Cc3cccs3)c2n1 -7.28%, CC1(C)CC(C(=O)N2CCOc3ccc(CN4CCC(Oc5cccnc5)CC4)cc3C2)CCO1 (stereo unspecified) 16.1%, NC1CCN(c2cccc(Cl)n2)CC1, CC1C(=O)N(C)C(=O)c2nc[nH]c21 (stereo unspecified) 14% [at 75.8 µM], CCSc1nnc(C(C)NS(=O)(=O)c2cccc(Cl)c2C)n1C (stereo unspecified) 14.6%, CCCCCCCCCCCCC/C=C/[C@@H](O)[C@H](CO)NCCCCCCCC 3.05% [at 15.3 µM], CC1(C)C=Cc2c(cc3occ(-c4ccc5c(c4)OCO5)c(=O)c3c2O)O1 -5.41%, C[N+]1(Cc2ccccc2)CCC(C(=O)OCC2CCCC2)CC1 (stereo unspecified) 36.6%, O=C1[C@H]2[C@H](C=CC[C@H]2C(=O)N2CCOCC2)CCN1Cc1ccc(Cl)c(Cl)c1 8.84%, COc1ccc2c(c1)OC/C(=C/c1ccc(OC)c(OC)c1)C2=O 4.4%, COc1ccccc1-c1nc(NCc2cccnc2)c2ccccc2n1 8.57%, O=C(O)CCNC(=O)c1ccc(N=Nc2ccc(O)c(C(=O)O)c2)cc1 17.6%, O=C(O)CCC(=O)OC[C@@H](NC(=O)C(Cl)Cl)C(O)c1ccc([N+](=O)[O-])cc1 (stereo partly specified) 21.6%, COCc1c(C(=O)N2CCN(C3CCCC3)CC2)cnn1-c1nccc(-c2cc(C)sc2C)n1 -29.7%, COc1cccc2oc(-c3ccccc3)cc(=O)c12 9.58%, O=CN1CCc2c([nH]c3ccccc23)C1c1cccc2cccnc12 (stereo unspecified) -9.31%, CCOC(=O)N1CCN(/[N+]([O-])=N/Oc2ccc([N+](=O)[O-])cc2[N+](=O)[O-])CC1 1.56% [at 75.8 µM], COc1cc(C(=O)NCc2ccc(OCCN(C)C)cc2)cc(OC)c1OC, CCCN1CCCC[C@H]1C(=O)Nc1c(C)cccc1C 22.4%, COc1ccccc1CNc1ccnc(-c2ccccc2C(F)(F)F)n1 -7.02%, COc1cc(NCc2ccc3nc(N)nc(N)c3c2C)cc(OC)c1OC 15.2%, CSc1ncccc1C(=O)NCCN1Cc2ccccc2OC(c2ccccc2F)C1 (stereo unspecified) -10.9%, Cc1ccc(S(=O)(=O)N[C@@H](Cc2ccccc2)C(=O)CCl)cc1 24.2% [at 75.8 µM], COc1cccc(-c2ccc3ncnc(NCc4ccccc4OC)c3c2)c1 -20.8%, Cc1cc(C(C)(C)C)c(O)c(C(C)(C)C)c1, COc1ccc(-c2cc(=S)ss2)cc1 2.77%, COc1ccc(S[C@@H](CCN2CC[C@H](NC(=O)OCc3ccccc3)CCC2=O)c2ccccc2)cc1 -15.2%, CN(C)c1ccc(-c2cncnc2Nc2ccc(F)cc2)cc1 -8.95%, COc1ccc2c(c1)OCC(Cc1ccc(OC)c(O)c1)C2=O (stereo unspecified) 2.17%, CN(CCO)C(=O)c1cn(C2CCN(Cc3c(F)cccc3Cl)CC2)nn1 18.1%, N[C@@H](C(=O)O)c1ccc(C(=O)O)c(O)c1 -6.82%, CN/C(=C\[N+](=O)[O-])NCCSCc1ccc(CN(C)C)o1, C=CCSSSCC=C 22.7%

Potency, active:
C/C1=C2N=C(/C=C3N=C(/C(C)=C4\[N-]C(C(CC(N)=O)C4(C)CCC(=O)NCC(C)OP(=O)([O-])OC4C(CO)OC(n5cnc6cc(C)c(C)cc65)C4O)C4(C)N=C1C(CCC(N)=O)C4(C)CC(N)=O)C(CCC(N)=O)C\3(C)C)C(CCC(N)=O)C/2(C)CC(N)=O.[CH3-].[Co+3] (stereo unspecified) 50.1 µM
